The values below come from the supplement of paper PMC10126150.

Sequences with one replicate were seen in a single cluster, so their values are uncertain.
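Note: ATP exposure 15 min at 22 °C before imaging.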

The series relates to ATP. Briefly: switch fluorescence ratio, 500 uM ATP over buffer (Cy3 cluster intensity, sum of 5 cycles each) (fold (ratio)); higher = stronger signal-on switching upon ATP binding; sequences stand for … in TCGTCGGCAGCGTCAGATGTGTATAAGAGACAGTTTTTTTTTTTTTTTTTTTTTTTTT…TC. As to conditions: aptamer strand: ATP DNA aptamer (quencher-CACCTGGGGGAGTATTGCGGAGGAAGG + anchor), 100 nM annealed; ATP concentration: 500 uM; one replicate. The method, boiled down: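 Between each of five buffer/ATP cycles, the flow-cell was stripped with NaOH and re-annealed. Each cycle imaged Cy3-labelled switching-strand clusters, annealed to 100 nM quencher-labelled ATP aptamer on a modified Illumina MiSeq flow-cell, first in selection buffer and then after 15 min with 500 uM ATP at 22 °C. The fluorescence ratio is summed target-cycle over summed buffer-cycle Cy3 intensity per cluster, averaged per switch-domain sequence, with clusters outside 100-1000 RFU excluded.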
Turning to TGACATAGGC, the switch fluorescence ratio stood at 1.

Regarding CTTTCCCCT, the switch fluorescence ratio is 1.02.

In the case of GCGGGCACGA, the switch fluorescence ratio is 0.982.

Turning to AATTCAAACT, the switch fluorescence ratio is 0.982.

On to ATTTACGGTA, for which the switch fluorescence ratio is 1.35.

Turning to GTCCGCGTGT, the switch fluorescence ratio worked out at 1.12.

Take TTGGATAAGA: the switch fluorescence ratio worked out at 0.935.

Take ATTTGAGC: the switch fluorescence ratio came out at 1.04.

On to CTTAAACGTG, for which the switch fluorescence ratio turned out to be 1.04.

As to CCCGGTAGAA, the switch fluorescence ratio was 1.01.

With CGCTCTTACG, the switch fluorescence ratio was determined as 1.03.

GCGGACCTCA: the switch fluorescence ratio was 1.02.

As to GCCGGGCACA, the switch fluorescence ratio was 0.969.

For the sequence TGCGATTGGG, the switch fluorescence ratio turned out to be 0.992.

As to TTCGCGTTC, the switch fluorescence ratio was determined as 1.08.

On to GCGCTTTGTT, for which the switch fluorescence ratio turned out to be 1.

Take GGTTAAGCCC: the switch fluorescence ratio stood at 0.993.

TGGGAAAGAC: the switch fluorescence ratio came to 1.08.

Regarding TGACTTCGGA, the switch fluorescence ratio was 1.01.

As for AGTAAGTCTA, the switch fluorescence ratio stood at 0.988.

TGAGACGGGG: the switch fluorescence ratio is 0.869.

Take TCCAAAATAG: the switch fluorescence ratio was determined as 1.67.

Consider CCAAGAAGGA, for which the switch fluorescence ratio was found to be 1.01.

For the sequence GGAATGGCGA, the switch fluorescence ratio was 0.995.

For TCCGTTCAGC, the switch fluorescence ratio was 1.33.

Take ATCCTTCACT: the switch fluorescence ratio turned out to be 1.12.

Consider AGGCACGTTC, for which the switch fluorescence ratio was 1.05.

Turning to CTTAGCGTGT, the switch fluorescence ratio was determined as 1.01.

With TCGGCTCGGT, the switch fluorescence ratio stood at 1.

Regarding AGTCGCACAG, the switch fluorescence ratio was found to be 1.01.

For the sequence GGGAAACCTA, the switch fluorescence ratio was found to be 1.02.

For the sequence AATCTGATTA, the switch fluorescence ratio turned out to be 1.

Regarding AAAACGGCTG, the switch fluorescence ratio came out at 1.11.

Turning to GCTGTGAGAT, the switch fluorescence ratio was 0.985.

Turning to GAGGTACCCT, the switch fluorescence ratio came out at 1.09.

Take TACTTCAGTC: the switch fluorescence ratio was 1.

As to GGCCCGCGCA, the switch fluorescence ratio was found to be 1.06.

For the sequence GTTTGTCATC, the switch fluorescence ratio turned out to be 1.03.

Turning to GGATGTAGGC, the switch fluorescence ratio came out at 1.05.

Turning to AGTAATCTGG, the switch fluorescence ratio is 0.981.

As to CGGTGATTGC, the switch fluorescence ratio worked out at 0.992.

On to TATACCCGGT, for which the switch fluorescence ratio came to 0.971.

As for GACAATTCCT, the switch fluorescence ratio stood at 1.08.

TTTGCGGATC: the switch fluorescence ratio turned out to be 0.971.

With CTGGAATCTG, the switch fluorescence ratio stood at 0.963.

Take CGGGAGTAAC: the switch fluorescence ratio is 1.02.

As for CTGGTACGTT, the switch fluorescence ratio was 0.98.

As for ACGGAGGGGA, the switch fluorescence ratio worked out at 1.01.

With CTCTAATGAC, the switch fluorescence ratio was 1.36.

Turning to GCCATAAGGA, the switch fluorescence ratio was 1.01.

As for ACGTTTACTT, the switch fluorescence ratio is 1.17.

As for CTGGTTGGAT, the switch fluorescence ratio was 0.948.

With GGAACTGCAA, the switch fluorescence ratio was found to be 2.15.

On to ACATTAAGTC, for which the switch fluorescence ratio was 1.06.

On to ACGTTACATC, for which the switch fluorescence ratio turned out to be 1.39.

For TATTTGACTA, the switch fluorescence ratio was 1.01.

As for GGGTTGAGAC, the switch fluorescence ratio turned out to be 1.05.

For the sequence TTATTTCCA, the switch fluorescence ratio was 1.01.

Regarding GGCGACGACA, the switch fluorescence ratio turned out to be 1.04.

As to TTGCCAGCGT, the switch fluorescence ratio was found to be 0.963.

On to TTGTAACCGG, for which the switch fluorescence ratio turned out to be 1.03.

Take TGGGAAGGAC: the switch fluorescence ratio stood at 1.03.

As for TTTAATTCCA, the switch fluorescence ratio came out at 1.03.

As to AAACTATTAG, the switch fluorescence ratio was 1.02.

Turning to CACAAAGTGT, the switch fluorescence ratio is 1.01.

For GCAGATGGAA, the switch fluorescence ratio stood at 0.997.

Turning to TTTAGAGTCT, the switch fluorescence ratio is 1.01.

In the case of GTCGTACAGC, the switch fluorescence ratio worked out at 1.05.

In the case of CTGGGCGCTA, the switch fluorescence ratio amounted to 1.01.

For TGGTAGACGA, the switch fluorescence ratio is 0.969.

Turning to TAGGGACCCC, the switch fluorescence ratio came to 1.03.

With ATGCGGGGTG, the switch fluorescence ratio turned out to be 0.995.

For AAGCCCCTG, the switch fluorescence ratio was determined as 0.957.

With GTTGTTGCG, the switch fluorescence ratio is 1.09.

For the sequence AACTAGCT, the switch fluorescence ratio is 0.997.

On to CAAGTAGATA, for which the switch fluorescence ratio was found to be 0.993.

Turning to TCACGAGCGG, the switch fluorescence ratio was found to be 1.01.

Take ACGGCAAATG: the switch fluorescence ratio stood at 1.07.

For the sequence CATGTATTTA, the switch fluorescence ratio is 0.981.

In the case of GCCTGATTCA, the switch fluorescence ratio came to 1.

TTGGAAGAT: the switch fluorescence ratio was determined as 0.982.

Consider CCAATATTAC, for which the switch fluorescence ratio stood at 1.94.

For the sequence GACGGCACAG, the switch fluorescence ratio worked out at 1.05.

With ATCCTGTGGA, the switch fluorescence ratio amounted to 1.05.

Take AGTGAATGCT: the switch fluorescence ratio is 0.97.

In the case of CGGTGCCAGT, the switch fluorescence ratio stood at 0.991.

Regarding GGCAGGGTTG, the switch fluorescence ratio was 0.98.

As for CGGGGCTAGA, the switch fluorescence ratio came to 1.02.

Consider ACATTACTTT, for which the switch fluorescence ratio came out at 1.21.

For the sequence TCATTTGTCT, the switch fluorescence ratio was found to be 0.979.

Take TCGCCACGTT: the switch fluorescence ratio was 0.996.

In the case of ACAAAGGATC, the switch fluorescence ratio was 0.991.

On to CTTATTCGGT, for which the switch fluorescence ratio turned out to be 0.959.

Take TTCCTGGGAT: the switch fluorescence ratio worked out at 0.98.

TGGTCTAAGC: the switch fluorescence ratio was 1.03.

In the case of TGGGTCCTCT, the switch fluorescence ratio turned out to be 0.973.

As for TCAAATTCCG, the switch fluorescence ratio came to 1.02.

Take GACGTCTGTA: the switch fluorescence ratio is 1.02.

GTGAATGTGG: the switch fluorescence ratio is 0.961.

On to ATGTAGAACC, for which the switch fluorescence ratio came out at 1.01.

As for ACTTCGCTGA, the switch fluorescence ratio amounted to 2.63.

With AGGATATCT, the switch fluorescence ratio was determined as 0.997.

Take ACATTATCTT: the switch fluorescence ratio is 1.1.

As to TAGTTATTCG, the switch fluorescence ratio came out at 1.03.

TCGTCGAGAG: the switch fluorescence ratio was found to be 1.

As to CCGTATTGGC, the switch fluorescence ratio amounted to 1.07.

Take AACAAAATCC: the switch fluorescence ratio was found to be 1.16.

On to TTACTCTAC, for which the switch fluorescence ratio was 1.32.

Consider ACATCGGCTC, for which the switch fluorescence ratio worked out at 1.03.

For AAACCTACGA, the switch fluorescence ratio amounted to 1.46.

Turning to GATGCGGTGT, the switch fluorescence ratio turned out to be 0.992.

ATTGCGATAT: the switch fluorescence ratio was determined as 1.09.

As for AAAGGAGCCA, the switch fluorescence ratio was found to be 0.979.

As for GGTCAATTTC, the switch fluorescence ratio came to 1.05.

Regarding TATGCCGAA, the switch fluorescence ratio is 0.95.

On to AGGCGACCAA, for which the switch fluorescence ratio amounted to 1.06.

As for CCACTTCACG, the switch fluorescence ratio turned out to be 1.4.

For the sequence TACGAAGAT, the switch fluorescence ratio is 1.03.

Take GCAAAGGGGA: the switch fluorescence ratio worked out at 0.998.

On to AGTCTTAGGA, for which the switch fluorescence ratio came to 0.996.
